About 40 (0.04%) of roughly 110,000 compounds were called active. Inconclusive results, whose numbers are uncertain, are shown with a selection of clear calls. Calls follow the shape of the dose curve; as a rule, active = well fitted curve in the direction sought with a large enough effect in the signal ratio (not every such curve was filed as active); inconclusive = small, poorly fitted or top-dose-only effect, or a change in a side signal; inactive = flat fitted curve, though single readings scatter; the % refers to the signal ratio. Potencies of inconclusive entries are doubtful fits and often do not repeat.
Assay: IkB Signaling;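 as to IkBa stabilization activation: 0% = basal untreated cells and 100% = reference inhibitor full response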
Conditions: ABC-DLBCL IkBa-CBG/CBR dual luciferase ratio (green luciferase fused to IkBa over red control in OCI-Ly3 lymphoma cells), 4 h; IkBa stabilization activation: at 57.1 µM (top of the series), scaled: untreated 0%, proteasome inhibitor 100% unless noted
Method in brief: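 Luminescence ratio of IκBα-fused green versus native red beetle luciferase in OCI-Ly3 cells, 4 h post-doxycycline with compound; red signal alone, scaled from basal (0%) to zero light (-100%), flagged nonspecific or cytotoxic effects.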
Potency is read from the fitted curve at half-maximal effect.

SMILES	IkBa stabilization activation	Potency
CCOc1ccc(C(=O)Nc2ccc3c(c2)OCO3)cc1OCC	inactive	–
CCCSc1nnc(NC(=O)c2cc(=O)c3ccccc3o2)s1	inconclusive: 3.53% [signal inhibitor]	–
CCOC(=O)N1CCc2c(sc3c2c(=O)n(CCc2ccccc2)c(=O)n3CC(=O)Nc2ccccc2C)C1	inconclusive: 2.21% [signal inhibitor]	–
Cc1cc(-c2nnco2)c(C)n1-c1ccc(F)cc1	inactive	–
CCCN1CCN(CCCNC(=O)c2cc3c(s2)-c2c(C)cccc2OC3)CC1	inconclusive: 1.62% [signal inhibitor]	–
Cc1ccc(-c2nn(CCC(=O)Nc3ccc(OC(F)(F)F)cc3)c(=O)c3ccccc23)cc1	inactive	–
COc1cccc(-c2nccc(NCc3ccccc3)n2)c1	inactive: -1.19% [at 11.4 µM, scaled: untreated 0%, proteasome inhibitor 100%]	–
COc1ccccc1CNC(=O)c1cnc2sccn2c1=O	inactive	–
Nc1c(C(=O)NC2CCCC2)c2nc3ccccc3nc2n1N	inconclusive: 3.74% [signal inhibitor]	–
CC(C)NC(=O)C1CCCN(S(=O)(=O)c2ccc3c(ccn3C)c2)C1 (stereo not given)	inactive	–
CCc1cccc(C)c1NC(=O)c1cc(CN2CCCC2)on1	inactive	–
COCCn1c(C)cc(O)c(C(c2cccc(F)c2)N2CCN(c3ccccc3)CC2)c1=O (stereo not given)	inconclusive: 0.963% [signal inhibitor]	–
COc1ccc(N(CC(=O)N2CCN(c3cccc(Cl)c3)CC2)S(=O)(=O)c2c(C)noc2C)cc1	inconclusive: 1.71% [signal inhibitor]	–
CCOc1ccc(C(=O)N2CC(=O)Nc3ccc(F)cc3C2c2ccc(F)cc2)cc1 (stereo not given)	inconclusive: -0.978% [signal inhibitor]	–
CC(C)Cn1cc(C(=O)N2CCN(c3ccccn3)CC2)c2c3ccccc3n(C)c2c1=O	inconclusive: 3.94% [signal inhibitor]	–
N#Cc1c(N2C(=O)C3C4C=CC(C4)C3C2=O)sc2c1CCC2 (stereo not given)	inconclusive: 15.9% [signal inhibitor]	–
COc1ccc(-c2oc3ncn4nc(COc5ccc(Cl)cc5)nc4c3c2-c2ccc(OC)cc2)cc1	inactive	–
CCN(CC)S(=O)(=O)c1ccc(N2CCCC2)c(C(=O)OCC(=O)/C(C#N)=C(\C)N)c1	inactive	–
O=C(Nc1ccc2c(c1)OCCO2)c1cncc(Br)c1	inactive	–
O=S(=O)(NCC(c1ccco1)S(=O)(=O)c1cccs1)c1ccccc1 (stereo not given)	inconclusive: -0.251% [signal inhibitor]	–
Cc1ccc(OC(C)C(=O)N2CCN(CCc3ccccn3)CC2)cc1C (stereo not given)	inconclusive: 1.74% [signal inhibitor]	–
CCCc1nnc(NC(=O)CSc2nnc3c4ccccc4n(CC)c3n2)s1	inconclusive: 1.75% [signal inhibitor]	–
COc1ccccc1CNc1ncnc2ccc(-c3ccccc3C#N)cc12	inactive: 2.56% [at 11.4 µM, scaled: untreated 0%, proteasome inhibitor 100%]	–
Cc1ccc(C)c(NC(=O)CCc2c(C)nn(-c3ccc(N4CCCC4)nn3)c2C)c1	inactive	–

SMILES	IkBa stabilization activation	Potency
CN(Cc1cc(C(C)(C)C)cc(Br)c1O)Cc1cc(C(C)(C)C)cc(Br)c1O	inactive: -0.853% [at 11.4 µM, scaled: untreated 0%, proteasome inhibitor 100%]	–
Cc1cccc(C(=O)Nc2ccccc2C(=O)OCc2c(C)noc2C)c1	inconclusive: 1.17% [signal inhibitor]	–
CCOc1ccc(CCNC(=O)c2ccc(-c3nc(COc4ccc(C)cc4)c(C)o3)cc2)cc1	inactive	–
Cc1ccc2nc(CN3CCN(C(=O)Nc4ccc(C)c(F)c4)CC3)oc2c1	inconclusive: -1.54% [signal inhibitor]	–
COCCCn1c(SCC(=O)Nc2ccccc2OC)nc2c(sc3ccccc32)c1=O	inconclusive: -1.93% [signal inhibitor]	–
Cc1ccccc1-c1ccc2ncnc(NCc3cccnc3)c2c1	inactive: 8.04% [at 11.4 µM, scaled: untreated 0%, proteasome inhibitor 100%]	–
Nc1nc(CN2CCN(c3cccc(Cl)c3)CC2)nc(N2CCCc3ccccc32)n1	inconclusive: -5.48% [signal inhibitor]	–
CCOC(=O)C1CCCN(C(=O)Cn2ncn3c(cc4sc(CC)cc43)c2=O)C1 (stereo not given)	inconclusive: 0.643% [signal inhibitor]	–
COc1cc(OC)c(NC(=O)Cc2ccc(-n3c(C)nc4cccnc43)cc2)cc1Cl	inconclusive: 1.1% [signal inhibitor]	–
O=C(Nc1ccc(F)cc1)[C@@H](c1ccccc1)N1Cc2ccccc2C1=O	inconclusive: 3.05% [signal inhibitor]	–
CC(C)c1ccc(NC(=O)CC2Oc3ccccc3NC2=O)cc1 (stereo not given)	inconclusive: -0.686% [signal inhibitor]	–
O=C(Oc1ccc2c(c1)OCO2)c1ccc(F)cc1Cl	inactive	–
Cc1cc(OCC(=O)N(Cc2ccc(N(C)C)cc2)C2CCS(=O)(=O)C2)cc(C)c1Cl (stereo not given)	inconclusive: 1.17% [signal inhibitor]	–
Cc1ccc(NC(=O)C(=O)NCC(c2ccc3c(c2)OCO3)N2CCN(c3ccccc3)CC2)cc1 (stereo not given)	inconclusive: 5.58% [signal inhibitor]	–
COc1ccc(CC(=O)NCC(c2cccs2)S(=O)(=O)c2ccc(Cl)cc2)cc1 (stereo not given)	inconclusive: 2.38% [signal inhibitor]	–
Cc1c(C(=O)N2CCCC2)oc2c1-c1nn(CC(=O)NC(C)c3ccccc3)cc1CC2 (stereo not given)	inactive	–
CCC(C(=O)Nc1cc(OC)ccc1OC)n1c(C)c2cnn(-c3ccccc3)c(=O)c2c1C (stereo not given)	inactive	–
Cc1cc(F)ccc1NC(=O)c1ccc2nc(Cc3ccccc3)oc2c1	inconclusive: 1.8% [signal inhibitor]	–
N#Cc1c(/N=C/c2ccco2)sc2c1CCCCC2	inactive	–
COc1cc(C(=O)Nc2nnc(-c3sccc3C)s2)cc(OC)c1OC	inconclusive: 8.52% [signal inhibitor]	–
Cn1nnnc1SCC(=O)N1CCN(Cc2ccccc2)CC1	–	inconclusive: 12.6 µM [signal inhibitor, partial curve]
Cc1ccc(C)c(N2CCN(C(=O)c3cc(S(=O)(=O)N4CCC(C)CC4)cn3C)CC2)c1	inconclusive: 2.24% [signal inhibitor]	–
O=C(Nc1ccc2c(c1)OCCO2)C1CCC1	inactive	–
COc1ccc(-c2noc(N3CCC(C(=O)N(C)c4cc(Cl)ccc4OC)CC3)n2)cc1	inactive	–

SMILES	IkBa stabilization activation	Potency
Cc1ccc2nc(CSc3nnc(-c4ccco4)n3-c3ccccc3)cc(=O)n2c1	inactive	–
COc1cccc(/C=N/n2c(SC)nnc2-c2ccccc2)c1OC	inconclusive: 3.08% [signal inhibitor]	–
Cc1cccc(C)c1OCC(=O)Nc1c(C(=O)c2ccc(Br)cc2)oc2ccccc12	inactive	–
CCCc1cc(C(=O)NC2CCCCC2)no1	–	inconclusive: 12.6 µM [signal inhibitor, partial curve]
Brc1ccc(-c2nn3c(-c4ccncc4)nnc3s2)o1	inactive	–
Cc1cccc(N2CCN(C(=O)C3CCN(S(=O)(=O)c4c(C)noc4C)CC3)CC2)c1C	inconclusive: 22.9% [signal inhibitor]	–
COc1ccc2oc(=O)c(-c3cn4c(n3)sc3cc(F)ccc34)cc2c1	inconclusive: 6.47% [signal inhibitor]	–
CCCOc1ccc(-c2nc(N3CCC(C)CC3)c3ccccc3n2)cc1	inactive	–
COC(=O)c1ccc([C@H]2Nc3ccc(S(=O)(=O)Nc4cccc(C)c4)cc3[C@H]3C=CC[C@H]32)cc1	inconclusive: 13.6% [signal inhibitor]	–
COCCNC(=O)CCCn1c(SCc2ccccc2Cl)nc2c(sc3ccccc32)c1=O	inconclusive: -1.91% [signal inhibitor]	–
Cc1cccc(N(CC(N)=O)C2SC(=O)N(Cc3cccc(C(=O)O)c3)C2=O)c1 (stereo not given)	inactive	–
Cc1c(-c2nnc(SCC(=O)Nc3ccc(Cl)cc3)o2)nnn1-c1ccc(F)cc1	inconclusive: 8.7% [signal inhibitor]	–
O=C(Nc1nnc(-c2ccco2)s1)C1CCCCC1	–	inconclusive: 25.1 µM [signal inhibitor, partial curve]
CCOC(=O)Cc1c(C)nc2c(-c3cccc(Br)c3)c[nH]n2c1=O	inconclusive: 15.8% [signal inhibitor]	–
CCN1CCSc2ccc(C(=O)NCc3ccccc3Br)cc21	inconclusive: 16.5% [signal inhibitor]	–
CN1CCN(C2=C(Cl)C(=O)N(c3ccc(Cl)c(Cl)c3)C2=O)CC1	inconclusive: -2.57% [signal inhibitor]	–
COC(=O)Cc1c(C)nc2nc(-c3ccc(C)cc3)[nH]n2c1=O	–	inconclusive: 25.1 µM [signal inhibitor, partial curve]
O=C(Nc1ccccc1C(=O)OCC(=O)N1CCc2ccccc2C1)c1ccco1	inconclusive: 5.93% [signal inhibitor]	–
CCOc1cccc2sc(NC(=O)CS(=O)(=O)c3ccc(C)cc3)nc12	inconclusive: 2.34% [signal inhibitor]	–
CCN(Cc1ccccc1)S(=O)(=O)c1ccc(F)c(C(=O)Nc2cc(C(F)(F)F)ccc2Cl)c1	inconclusive: 1.68% [signal inhibitor]	–
COC(=O)CSc1ccc2c(N)c(C(=O)OC)sc2c1	inconclusive: 4.1% [signal inhibitor]	–
CCS(=O)(=O)c1c(Nc2cc(C)ccc2C)sc(C(=O)c2ccccc2)c1N	inconclusive: -1.67% [signal inhibitor]	–

Source: PubChem BioAssay AID445 (National Center for Advancing Translational Sciences (NCATS), 2006)
